Measured values published in the supplement of paper PMC11417369.
± gives the standard deviation of the averaged measurements. The list shows a part of the results.

system: PfAP2-EXP AP2 domain (GST-tagged); test: gcPBM binding intensity (ln(normalized median fluorescence intensity)); higher = stronger DNA binding
Procedure, shortened: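 After 1 h on an Agilent 4 × 180k array of primer-extended double-stranded 36-bp intergenic genomic probes and negative controls, bound GST-tagged P. falciparum DNA-binding domains were detected with Alexa488 anti-GST antibody and scanned at 488 nm. The domains had been expressed in E. coli, and binding took place in 1× PBS with 1% milk, 0.2 mg/ml BSA, 0.5% salmon testes DNA and 0.03% Triton X-100. Binding intensity is the highest Masliner-normalised natural-log median intensity across replicate spots of either probe orientation.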

Going from “TTATTAAAGTATAACTGTACATGCGAGTAAAAGAAT [XGTACX_site7388]” to “CATAAAATTGTATTTTGTACACATTTTGTATACATT [XGTACX_site5705]”, the “gcPBM binding intensity (ln)” value falls from 9.44 ± 0.48 to 8.39 ± 0.28.

“TATATATAGAAACACACACACATATATATATATATT [CACACA_site4115]” and “ATTTACATAAACGTCTGTACTAATATACAATTTTCT [XGTACX_site1700]” are within error of each other in “gcPBM binding intensity (ln)” value: 8.7 ± 0.37 for the first, 8.61 ± 0.38 for the second.

“TATTATATATTTAATAGTACATATAAAATAATAAGG [XGTACX_site4823]” and TGGTTTATTTATTAAGTGCATAAATGCAATATATAT are within error of each other in “gcPBM binding intensity (ln)” value: 8.57 ± 0.085 for the first, 8.79 ± 0.18 for the second.

“TACTATAACCCACATACACACAAAAAAAAAAAAAAA [CACACA_site4454]” and “TATACAGATGGACACACACACATAAATAAATATATA [CACACA_site4863]” are within error of each other in “gcPBM binding intensity (ln)” value: 8.14 ± 0.54 for the first, 8.78 ± 0.61 for the second.

“TTTATTTTTAACAGTGCACACATAACTTAATTATAT [CACACA_site8681]” and “ATATGAGTATAAAAATGTACGGAGCAACTAAATATA [XGTACX_site620]” are within error of each other in “gcPBM binding intensity (ln)” value: 9.005 ± 0.021 for the first, 9.2 ± 0.4 for the second.

“AAATAAAACAGACACACACACACATACACAAAAAAA [CACACA_site7753]” and “TATAAATATGTATATGCATGTGGAATATATAATTAA [TGCATGCA_site226]” are within error of each other in “gcPBM binding intensity (ln)” value: 8.71 ± 0.51 for the first, 8.9 ± 0.23 for the second.

“ATTACAACCACATTGACATGCAAATGTAGAGGGGGA [TGCATGCA_site694]” and “TGTCACCTATTTTTTTGTACGTATGTCCATTTTTTT [XGTACX_site4368]” are within error of each other in “gcPBM binding intensity (ln)” value: 9.81 ± 0.49 for the first, 8.94 ± 0.47 for the second.

“AAAAAATATAGATGCACACACAAAAAAACAAATTAA [CACACA_site6718]” and “TTAACTTCTTTAAAATGTACATATATTAAATAATAA [XGTACX_site3391]” are within error of each other in “gcPBM binding intensity (ln)” value: 8.69 ± 0.54 for the first, 8.3 ± 0.35 for the second.

“TTTATGTAATATACATGTACAGAATATAAAATATAT [XGTACX_site6906]” and “AGATTTTGAAATTATAAAAAAATTTCACTTCATTTA [CACACA_negctrl_site888]” are within error of each other in “gcPBM binding intensity (ln)” value: 8.62 ± 0.32 for the first, 7.96 ± 0.37 for the second.

Going from “ATATATATATATCAGAGTACATTCTTTAAAATATAT [XGTACX_site5915]” to “GTATTATTATTTTATGCATGTACATTGAATTATATT [TGCATGCA_site34]”, the “gcPBM binding intensity (ln)” value falls from 9.98 ± 0.085 to 9.19 ± 0.28.

“TATTCTTACATCACCTCACACATTTAATATTCCTTA [CACACA_site4693]” and “AATCCTTACGAACACACACACACGAATAAATAAAAA [CACACA_site6363]” are within error of each other in “gcPBM binding intensity (ln)” value: 8.8 ± 0.45 for the first, 8.84 ± 0.59 for the second.

“TAGAATTAAGTTATTGCACACAGGAAAAGTTTCATA [CACACA_site1634]” and “ATAAATAAGAAAAATTGTACAATATTTTTTAGGATA [XGTACX_site3163]” are within error of each other in “gcPBM binding intensity (ln)” value: 8.47 ± 0.17 for the first, 8.59 ± 0.36 for the second.

“TCTTCGAAACTATCACTCTCACAATTCATTTATTTT [TGCATGCA_negctrl_site156]” and “AACACATAAAAAAGGTGTACCATAAAATATACATAC [XGTACX_site4478]” are within error of each other in “gcPBM binding intensity (ln)” value: 8.76 ± 0.49 for the first, 8.68 ± 0.24 for the second.

First: CTCATTTTTGTACAGGTGCACTTATCGTTACACTAT
Second: ATATATATATATATATCATTTATTTAAAAATTTTTT [TGCATGCA_negctrl_site228]
The “gcPBM binding intensity (ln)” value of the first is lower: 9.61 ± 0.057 for the first, 10.1 ± 0.3 for the second.

“TATTTTATCATTTTTTTTATGTCTTTATTTCACTTG [CACACA_negctrl_site1398]” and “ATATACATTAAATGAACACACATAAATAAATTACAT [CACACA_site2852]” are within error of each other in “gcPBM binding intensity (ln)” value: 8.72 ± 0.47 for the first, 8.53 ± 0.45 for the second.

“TTTTAATTTTGTTGTTGTACAAATAACATGTGAGGG [XGTACX_site4401]” and “CTGTGTTTTGGTTGTACACACGCTACATTATATATT [CACACA_site5487]” are within error of each other in “gcPBM binding intensity (ln)” value: 9.14 ± 0.46 for the first, 9.31 ± 0.18 for the second.

“ATATACACATTAATAACACACAATATGATAACAAAT [CACACA_site7670]” and “GTGCATAAATCATACACACACACATATATAAATATA [CACACA_site7188]” are within error of each other in “gcPBM binding intensity (ln)” value: 8.79 ± 0.33 for the first, 8.54 ± 0.45 for the second.

“GTGTTTTTATGTGAATGTACATATTTACTATCACAC [XGTACX_site2388]” and “AAAGTTTTTATAAAAAAAAAAATAAATACCATATAT [XGTACX_negctrl_site113]” are within error of each other in “gcPBM binding intensity (ln)” value: 8.96 ± 0.22 for the first, 8.63 ± 0.48 for the second.

“AAAAGTTTAAGTTTTCGAAAATTTACCAAAAAAAAA [CACACA_negctrl_site1644]” and “TTACTTTAACCTTCTCGTACTTATTTACTTTATTCT [XGTACX_site7801]” are within error of each other in “gcPBM binding intensity (ln)” value: 8.42 ± 0.48 for the first, 9.05 ± 0.61 for the second.

Compared with “TTTTATTATTCTTCTCTCTTATATATATATATATAT [CACACA_negctrl_site646]”, “TTTCAAAGGAAATGGTGTACACAATTTTTCCTTTTT [XGTACX_site2340]” is lower in “gcPBM binding intensity (ln)” value: 10.2 ± 0.26 for the first, 8.47 ± 0.23 for the second.

“TACTTTTATATGAATACACACAGGAATATATATATG [CACACA_site3568]” and “ACTGTGGTATAAAGTTGTACATGTTTTTATATATTT [XGTACX_site5257]” are within error of each other in “gcPBM binding intensity (ln)” value: 8.5 ± 0.41 for the first, 8.65 ± 0.47 for the second.

“ATAACATAGGCAATCACACATATCATTAAGGTGTCA [CACACA_site5233]” and GTCTAAAAATAAAAAGTGCATTTGTTTAATATTTTG are within error of each other in “gcPBM binding intensity (ln)” value: 8.56 ± 0.37 for the first, 8.5 ± 0.099 for the second.

First: TATTATTATTATTATTTTAAAAGAAATAAAAATATG [XGTACX_negctrl_site119]
Second: ATTAAAACAAATATGTGTACATAAAAATATATATAT [XGTACX_site8394]
The “gcPBM binding intensity (ln)” value of the first is lower: 8.1 ± 0.39 for the first, 9.145 ± 0.035 for the second.

“TTAATTTTTTTTTTTTGTACTCATATGTAATTCATC [XGTACX_site3071]” and “TGATTGTATTAAAATGCACACATATCAAGAGGAATT [CACACA_site7985]” are within error of each other in “gcPBM binding intensity (ln)” value: 8.54 ± 0.57 for the first, 8.69 ± 0.34 for the second.

“TTAATAAATATGTTTACACACGAAAATACATTTTTT [CACACA_site8245]” and “TTAAAAGTTATGGATACACACATATAAATATAGATT [CACACA_site7175]” are within error of each other in “gcPBM binding intensity (ln)” value: 8.22 ± 0.4 for the first, 8.27 ± 0.4 for the second.

“TCGATTAAAACACAAAAATATAAATACATTGATAAA [TGCATGCA_negctrl_site523]” and “TAATTTTCATAATTTTGTACTTAACGTTTTACCTTG [XGTACX_site8048]” are within error of each other in “gcPBM binding intensity (ln)” value: 8.23 ± 0.43 for the first, 8.79 ± 0.45 for the second.

“ACATATATATATATATATATATATATATATTCTTAA [CACACA_negctrl_site930]” and “CACACGCACGAACACACACACACACGCGCACATATA [CACACA_site6304]” are within error of each other in “gcPBM binding intensity (ln)” value: 9.01 ± 0.071 for the first, 8.86 ± 0.42 for the second.

“ATTTTAATTTTTTAAGTATTATATGAATATTTATTA [TGCATGCA_negctrl_site142]” and “TTCATTCTATAAAACACACAAATATTTTTGTATCCC [CACACA_site6458]” are within error of each other in “gcPBM binding intensity (ln)” value: 8.29 ± 0.49 for the first, 8.57 ± 0.48 for the second.
